Data taken from the RNAGym collection of RNA variant scans (doi:10.7554/elife.90254).
Read counts are not given, so values of variants with three or more changes are uncertain.

B1: LINE1-full (parent)
chain: UACGUAGGUGGUUUUCCCCUGAUAGUGCUAAGGGGGCCUGGAAGUUUGGACUGGGCAGAGCUCAACACAGCGUGGCAAAGUGGCUGUGGCUAGACUGCCUCUCUGGAUUCCUCGUCACUCAGCAGGGCAUCUCUGAGAGAAAUGCC

Variants of: B1
Test: self-cleavage, relative activity (ratio to wild type); higher = more cleavage; in vitro, sequencing; the parent is a self-cleaving ribozyme

Variant	self-cleavage
U13C A42G U119A	1.16
U13C A42U A92G U130A	0.04
U13C A42U A140C	1.41
U13C A42U U85A	0.11
U13C A43G A50G A65G	0
U13C A43G U62C G72U	0.09
U13C A43G U115C	1.15
U13C A43U U102A	1.08
U13C A43U U109A	1.24
U13C A50G A117G	1.62
U13C A50G A124G	0.23
U13C A50G G53C U112C	0
U13C A50G U62C A124U	0.26
U13C A50G U62C U104A U132C	0.31
U13C A50U A67U A117G A129U	0.3
U13C A57G A94U U130C	0.53
U13C A57G C84U A141G	0.11
U13C A57G U100A	0.46
U13C A57G U134G	1.31
U13C A59G A67G C101U	0
U13C A59G U81C	0.09
U13C A59G U102C A124G	0
U13C A59G U104A	0.03
U13C A59U A117G C123U A142U	0.75

Variant	self-cleavage
U13C A64C U96A U132C	0.08
U13C A64C U96C U115C	0
U13C A64G U102A G122U	0.31
U13C A64U G122U A129G	0.47
U13C A65G A69G U73G U108A	0
U13C A65G U73C A77U	0
U13C A65G U100C	0
U13C A67G C101U U134C	0.52
U13C A67G U73C	1.67
U13C A67G U109A U130C	0
U13C A67G U109G	0.31
U13C A67G U134G U143A	0.62
U13C A67U A121G	0.2
U13C A67U A129U U134G	0.08
U13C A67U C99U U119G	0.08
U13C A69G A142C	0.41
U13C A69G G114A	0.64
U13C A69U A121G	0.08
U13C A69U U100A	0.02
U13C A69U U134C A140G	0.18
U13C A77C C110U A117G U130C	1.67
U13C A77G A140G	0.95
U13C A77G U87A	0.2
U13C A78G A138G	1.91

Variant	self-cleavage
U13C A78G G83A	0.56
U13C A78G U87C A94G	0
U13C A78G U96C A141G	0.45
U13C A78U U132C	2.22
U13C A79G A117U	1.5
U13C A79G A124G	1.15
U13C A79G U96A	0.13
U13C A79G U102A	0.93
U13C A79G U102C A138G	1.06
U13C A92G U104A A117G	0.2
U13C A92G U104C	0
U13C A92G U130C	0.19
U13C A92U A94G	0.13
U13C A94G C120U	0.16
U13C A94G U109C	0.16
U13C A121C U130C	1.71
U13C A121U A138U C145U	0.79
U13C A124G U134A A138G	0.22
U13C A124U A136G	1.49
U13C A129G A142U	1.21
U13C A141G U143G	1.48
U13C A142G U143C	1.82
U13C C16U U104C A129G U134A U143C	1.84
U13C C17U A64G A142G	0.28

Variant	self-cleavage
U13C C18U U20C A65G	0.09
U13C C19U A136U	0.77
U13C C19U U91C	0.78
U13C C28U A124G	0.84
U13C C37G A57G U96A U104G C113A	0.1
U13C C37U U62C U108C	0.07
U13C C38A A64G A107G	0.26
U13C C38A A92G	0.12
U13C C38U C66U	0.09
U13C C51G A64U U73C U87A	0.48
U13C C51U U108C	2.76
U13C C56U U96A U108C	0.05
U13C C56U U115C	0.22
U13C C61U A69U U87C	0.18
U13C C63A A94G A124U A140G A142G	0.07
U13C C66A A69G U115C	0
U13C C66G A92G U134C G139U	0.07
U13C C71U A78G	0.3
U13C C71U U108A	0.98
U13C C128U A141G	1.58
U13C C133U A138G	0.86
U13C G21A U47C A59G G70C U108C	0
U13C G25U C37G	1.4
U13C G32A A94G	0.36

Variant	self-cleavage
U13C G32A A107G A121G	1.12
U13C G32U U39A U91C A92U A140G	0.22
U13C G33A A50G A136G	1.09
U13C G33A A50G C90U A117C	0.08
U13C G33A U85C	0.22
U13C G33A U96A	0.19
U13C G34A U47C G93C	0
U13C G34A U108C A138U A141G	1.34
U13C G34U A77G U112A A138G	0.98
U13C G34U U62A A77G A78G U100A	0.17
U13C G35C C113U	0.88
U13C G35U A64G A67U	0.06
U13C G35U A94G A140G	0
U13C G36A U132G U134G	0.74
U13C G36C A138G	1.5
U13C G40A U87C C123A	0.13
U13C G40C A43U A64G G86A U130C A140G	0.04
U13C G40C A69U U81G U85C A124G A138G	0
U13C G48A U73C A141G	1.2
U13C G49U A140G	1.18
U13C G49U U143A	0.85
U13C G53A A121G	1.07
U13C G53A U115C U132C	1.46
U13C G54A A140G	0.32

Variant	self-cleavage
U13C G54A G75A	0.46
U13C G54C A142U U143C	0.35
U13C G54C U62A A64G	0.56
U13C G54U A124U A136G	1.03
U13C G54U U108C U134A	1.41
U13C G60A U91C	0.02
U13C G70A A94G U112A U119C U134C	0.28
U13C G72A A124G	0.76
U13C G72U U115C	1.46
U13C G74A U119A	1.44
U13C G75A A77G U102C A138U	0.9
U13C G89A A94U	0.02
U13C G122U A136G	0.98
U13C U14A A22G A64G C76U G83U	0.28
U13C U14A A31G A43U	0.47
U13C U14A A138G	1.17
U13C U14A G114A	0.79
U13C U14A U52A U119C A142U	1.16
U13C U14C A43U U102A	1.29
U13C U14C A78G	0.66
U13C U14C A129U	1.22
U13C U14C A138G A142G	1.62
U13C U14C C38U U46C A140G	0.84
U13C U14C C131U	1.53

Variant	self-cleavage
U13C U14C U20A A43G U62C C101U	0
U13C U14C U26C G40U A64G	0
U13C U14C U29C A42U	1.03
U13C U14C U62C	0.18
U13C U14C U87A A129G	0.16
U13C U14C U115A	1.38
U13C U14G G36A A65G A142G	0.17
U13C U14G U73A A129U	0.9
U13C U15A A65U A69G	0.13
U13C U15A U29A	1.1
U13C U15C A59G A141G	0.49
U13C U15C A67U	0.08
U13C U15C A79U A117U	1.82
U13C U15C C19U A121U	0.73
U13C U15C C61U	0.09
U13C U15C G32A C84A	0.23
U13C U15C U45G C90U U109C	0.09
U13C U15C U91C	0.27
U13C U20A A69U U81C	0.08
U13C U20A U81A G82A	2.73
U13C U20A U115C U143A	0
U13C U20C A22G U39C	0
U13C U20C A22U A78G A141G	0.89
